Results on 19 molecules are retold here after the supplement of paper PMC12632987.

Sequences and labels used below:
B1: LC3A_free_0_2119 (protein)
chain: KKTVVEVVVILDESVDEETAEKIHKELTKKAEELAKKYGGKLKSSLSKSDGRYIITIEITFDTEDIDLALEVERELVKIAEEILKKAGVEATIYSSVYLE
B2: LC3A_141_381 (protein)
chain: MEKKFEARFTEEQADELFEFFEEVEKEAKKMIKESGGKPVKVEVKITATNPETGEVVEEEETDIVTEENVDLVMDGYEIKALSMLLRVGGEVEVEVKLKV
B3: LC3A_132_328 (protein)
chain: SDATYAKLKAELTAKLTEAKANVDDLEKVEALNKEARALLAQAEKEVSPAQVAELYRLAADLWDEVADAAEAAGKEDVELLASGAAVEAEARAIRAEEKI
B4: LC3A_free_46_2417 (protein)
chain: WKGTVEADLYGATEEQVEEIKKEVEEKAKELSEKYGVEVKVEIEVEKNEDGTYFVKIKVTIEGEDKETVQKAADEMVDKLEEIADKKGVAMIISVDIEEA
B5: LC3A_3_1367 (protein)
chain: MEERIAATLARLRAAGRSEETLEAVRRAAEALAEKGYEEALETFLALMLELAHLPDELLLWFAEEVLAAVEAGELSEEELIEFIREEARVARSAAEIEEL
B6: LC3A_free_46_2376 (protein)
chain: YKIEIDIYFSAMSKEKAEEMAEEIKKAAEEISKKTGVKIEVEVKIITDENGETWLEVKVTIEGEDKEKALKAATELIDKFDEIAEKHGVSLIISVEEIDE
B7: LC3A_3_1604 (protein)
chain: GEALVAALLARLRAAGLAEPVLAAAERALRALAARGYAEAAETLAAELLAAADLPEELLVATLEELLEIVETEDLTEEELIAEIEELFRVARLEAEIEEL
B8: LC3A_132_259 (protein)
chain: SEELFEKALKELKELLDEIVKALQEGKDPMPLVVKLDETAEKYAEKLSLEDTEKLAEEAKKYAKELFEKNLDPNNEEARRVLDIVEMLLEGVLIEKELRD
B9: LC3A_28_909 (protein)
chain: SAVDAAVAAAIAEARAAAARGEPAVVTLTIDHEDVAEAEAAARAALTRLKEVALELPGLTIIVDVPEHIADAVTAVADEVQAELDKANPSNHIIVAVEEP
B10: LC3A_free_39_2252 (protein)
chain: SAAEEAAAKERLEAIKASVSPEVAAEIDELVAAAKAIGLPLAFVAEQVERLVNSGLSEEDLIATLREMVAALKAHADDPEAARAALEEITREAVNLIPLD
B11: LC3A_3_1686 (protein)
chain: MDELVKEVLEEAKKNGYSEETLKALEKLLKKLKERGYENAIKEILEEIKELKNAPSELWKDMFEDLLHKVETEDLSEEEIVEEIKKEARVIKNELEIEEL
B12: LC3A_free_46_2370 (protein)
chain: MVIYAYAYKEGWTEEEAKELLEEIKEGIKEIAKELGVEVKIKGKVVKNKDGSYLVEVEIEIKAPTKELAEEAAKKIIEKLDEIAEKNGAAVIISLEETEP
B13: LC3A_28_644 (protein)
chain: SALDEQLEKALKEAKEAAKAGKPAVITLTLPGDANEEDVERILKAMEEIAEILKDVPGSAIIVDIERGVDQEHVDRIIDKAEELEKKYPNVTVIIALDEE
B14: LC3A_127_168 (protein)
chain: ELEELLKKAIKEAEEASDLLDSGNFDYEELKKKLEELIKLLEEALKLDPRVQEALEDAKQALKLLEEMKKASPEEAEALREHASLLLEGIIISLESILLK
B15: LC3A_28_1188 (protein)
chain: SALEKSLEEAIKEAKEKAAKGEPAVITIKVPGDADEEDIEKVIETLEEIAEILKDIPGSAIIIDLDGGVKQEHQDKLMKKAEEIEKKYPNVTVIIALEER
B16: LC3A_23_612 (protein)
chain: MYRVEVIADAILAPEEAAAKEAAALARIEELLEEHKDKIVEAEIEVEREELPDGRTYLTIRITVVVDGTREEAEELANEIVDILDEVLPDAVISSEVEKL
B17: LC3A_free_26_2149 (protein)
chain: DEFIDIVELDKAIDLLEELLKLLEENELASEEEKKLAKEALEEAKKETLESLKKALKLVEELLKLLKKNEKLPEETKKKLIKLAEEAIKHIKENIKIMES
B18: LC3A_3_1729 (protein)
chain: MEERLAEYEARLAALGLSPEVLAAALETIRALLEKGLEEEVERLLAALERVRDADQELLLASLQEILETVKTSKLDKESLAKEVAELIRTFEADAEIIEL
B19: LC3A_28_1184 (protein)
chain: SALEKNLKAALEEAKKAAAAGEPAVVTITVPGDADEEDIEKVIKAMEEIAEILKDIPGSAIIIDLERGVKQEHIDKLAKKAEEIEEKYPNVTVILALEEE

Whole data set: some 2,300 sequences, median “median log2 fold change of GCK-ALFA target abundance (FLAG IP / Myc IP barcode read proportion)” near 0.095, cut for the lowest 2% near -0.47. Some of the results follow.

The assay has as its target MAP1LC3A, Q9H492. The assay is described as follows: median log2 fold change of GCK-ALFA target abundance (FLAG IP / Myc IP barcode read proportion) (log2 ratio); each designed protein is fused to an ALFA-tag nanobody in HEK293 cells to bring the named protein to FLAG-tagged glucokinase (GCK); Myc marks an untargeted standard; higher = target protein stabilised (more abundant). As to conditions: target protein: 3xFLAG-MCP-GCK-ALFA reporter; HEK293 landing pad (RPLP). Summed up: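 An ALFA-nanobody-fused binder library was recombined into HEK293 landing-pad cells and induced with 2 μg mL^−1 doxycycline. Cells were transfected with a plasmid expressing a FLAG-tagged target and a Myc-tagged standard. After 48 h, lysates underwent anti-FLAG and anti-Myc immunoprecipitation, and circular RNA barcodes were reverse transcribed, amplified and sequenced. Target abundance is the per-binder median log2 ratio of FLAG to Myc barcode read proportions. Barcodes needed ≥10^−7 proportion in both replicates, binders ≥3 barcodes per replicate, and a 10^−6 pseudocount was added; the two replicates were pooled.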
B1: the “median log2 fold change” value stood at 0.0235.
With B2 the figure was 0.0288.
With B3 the figure was 0.182; with B4, 0.0346; with B5, 0.0702.
Consider B6, for which the “median log2 fold change” value was -0.231.
As for B7, the “median log2 fold change” value was -0.239.
For B8 the value was 0.0453; for B9, -0.0828; for B10, 0.403.
For B11 the value was 0.177; for B12, -0.246.
With B13 the figure was -0.366; with B14, 0.25; with B15, 0.0659.
As for B16, the “median log2 fold change” value is -0.101.
With B17, the “median log2 fold change” value was -0.0408.
As for B18, the “median log2 fold change” value was 0.328.
For B19 the value was 0.298.
